Measurements as given in patent publication US20210147571A1, “MONOCLONAL ANTIBODY TARGETING HUMAN TUMOR STEM CELLS AND USE THEREOF” (Suzhou Bojuhua Biomedical Technology Co. Ltd, priority 2017, published 2021).

Assays:
[1] = tested on: target antigen of Hetumomab in human liver cancer tissues; assay: immunohistochemistry of liver tissues; assay type: binding
Source text: (§1) By using conventional immunohistochemical techniques, the expression of the target antigen of Hetumomab in many human liver cancer, lung cancer, gastric cancer patients and other related tissues was detected by taking Hetumomab as the primary antibody, and the anti-mouse antibody as the secondary antibody.
By using Hetumomab as the primary antibody, the expression of the target antigen of Hetumomab was detected in human liver cancer tissues of 120 cases, para-carcinoma tissues of 20 cases, normal liver tissues of 10 cases, hepatitis tissues of 10 cases and hepatic cirrhosis tissues of 40 cases.

[2] = tested on: Bel7402-V13 sphere cells; assay: Transwell invasion inhibition; assay type: cell-based, human
Protocol: Hetumomab^+ cells, parental cells and Hetumomab^− cells were isolated from human liver cancer Bel7402-V13 sphere cells cultured for 5 days by flow sorting. The sorted cells were seeded in the same amount in a Transwell chamber previously coated with Matrigel gel, and fixed after 24 hours, to observe the number of cells invading through the membrane under a microscope. […] Therefore, Hetumomab^+ cells have stronger invasion ability than the parental cells and Hetumomab^− cells.
(§2) High invasiveness is another important biological feature of cancer stem cells.

[3] = tested on: CD44+ cells of SNU-5; assay: Transwell invasion inhibition; assay type: cell-based, human; conditions: for Cells/Field of Vision (invasion): SNU-5 CD44+
Source text: as §2

[4] = tested on: SPCA-1 sphere cells; assay: Transwell invasion inhibition; assay type: cell-based, human
Source text: as §2

[5] = tested on: SPCA-1 transplanted tumor; assay: human lung cancer transplanted tumor treated with Hetumomab; assay type: in vivo, nude mice; conditions: day 28
Protocol: Specifically, the sphere cells of the human lung cancer cell line SPCA-1 were harvested and inoculated in nude mice at 2.5×10^5 cells/mouse. The mice were divided into following 5 groups, with 5 mice in each group: the PBS control group; the chemotherapy group (cisplatin 0.3 mg/kg); the high dose antibody Hetumomab group (40 mg/kg); the medium dose antibody Hetumomab group (10 mg/kg); and the low dose Hetumomab group (2.5 mg/kg). The antibody treatment was started on the second day after inoculation of lung cancer cells. The experimental groups and the control group were treated by intraperitoneal injection. The treatments were performed for 28 days after inoculation. The chemotherapeutic drug group was treated twice a week. The major and minor diameters of the subcutaneously transplanted tumors were measured twice a week. The tumor volume was calculated with the formula V=(π/6)×(major diameter×minor diameter×minor diameter). The change in tumor volume in each group was observed.

[6] = tested on: CD90+ stem cells of MHCC97L; assay: two-color flow fluorimetry co-staining with CD90; assay type: binding, human
Source text: In order to detect liver cancer stem cells in human liver cancer cell line Bel7402-V13 cells reconginized by monoclonal antibody Hetumomab, which are also ESA and CD90 marker positive, we used two-color flow fluorimetry to stain the human liver cancer cell line Bel7402-V13 cells after culture for 5 days in a serum-free medium.
That is, Hetumomab recognized 40.2% of ESA^+ stem cells. Human liver cancer MHCC97L cells cultured for 5 days in a serum-free medium were stained.

[7] = tested on: target antigen of Hetumomab in human gastric cancer tissues; assay: immunohistochemistry of gastric tissues; assay type: binding
Source text: as §1
By using Hetumomab as the primary antibody, the expression of the target antigen of Hetumomab was detected in human gastric cancer tissues of 110 cases, para-carcinoma tissues of 20 cases, and normal gastric tissues of 3 cases.

[8] = tested on: SPCA-1 cells; assay: sphere-forming inhibition (self-renewal); assay type: cell-based, human
Protocol: (§3) The main manifestation of the self-renewal ability of tumor stem cells is the ability to form spheres in serum-free medium, which is called asymmetric division, that is, when one cell divides into two daughter cells, one of the daughter cells maintains the same features as the parental cell, while the other daughter cell may continue to divide, forming normal daughter cells. […] And then Hetumomab (250 μg/mL) was used as the experimental group, and the PBS was used as a negative control group to incubate with the cells at 37° C. for 2 h, during which the cells were mixed with the antibody or the negative control once every half an hour. 500 cells in each group were inoculated into a semi-solid sphere medium (containing EGF, LIF, bFGF, etc.) containing 0.8% methylcellulose, and cultured in an ultra-low adhesion 24-well plate. 1-1.5 mL liquid medium was added every other day, and the number of spheres formed from the two groups was observed after 14 days.

[9] = tested on: CD44+ cells of SNU-5; assay: sphere-forming inhibition (self-renewal); assay type: cell-based, human; conditions: SNU-5 CD44+
Protocol: as §3

[10] = tested on: Bel7402-V13 transplanted tumor; assay: human liver cancer transplanted tumor treated with Hetumomab; assay type: in vivo, nude mice; conditions: for tumor growth rate: month after drug withdrawal
Protocol: Bel7402-V13 sphere cells were inoculated subcutaneouly to nude mice at 30,000 cells/mouse. The nude mice were randomly divided into 6 groups (6 per group) as follows: the chemotherapy group (0.3 mg/kg cisplatin, 6 mice); the high dose antibody group (10 mg/kg, 6 mice); the high dose antibody+chemotherapy group (6 mice); the low dose antibody group (2.5 mg/kg, 6 mice); the low dose antibody+chemotherapy group (6 mice); and the PBS group (6 mice). The treatments were started the next day after the cells were inoculated, twice a week, and terminated after 5 weeks. The major and minor diameters of the subcutaneously transplanted tumor were measured twice a week. The tumor volume was calculated with the formula V=(π/6)×(major diameter×minor diameter×minor diameter), and the changes in tumor volume and growth rate of each group were observed. […] Tumor growth rate=(Vt−V0)/number of days, where Vt is the tumor volume at each measurement, and V0 is the tumor volume […] ([…]).

B1: Hetumomab: mouse monoclonal antibody (IgG1, κ) against human tumor stem cells, hybridoma CGMCC NO. 12251; VL SEQ ID NO:1, VH SEQ ID NO:5 (antibody, V domains shown)
VH: QVTLKESGPGILQPSQTLSLTCSFSGFSLSTSGMGVSWIRQPSGKGLEWLAHIYWDDDKRYNPSLKSRLTISKDSSNNQVFLKITSVDTADTATYYCARSFYYYANNSFAYWGQGTLVTVSS
VL: DIVMTQAAFSNPVTLGTSASISCRSSKSLLHSNGITYLYWFLQKPGQSPQLLIYQMSNLASGVPDRFSSSGSGTDFTLRISRVEAEDVGVYYCAQNLELYTFGGGTKLEIK
modifications: Hetumomab heavy chain variable region; Hetumomab light chain variable region
For B1, the “Proportion of Positive Cases (%)” value ([1]; Hepatic Cirrhosis) was 0%, the “Proportion of Positive Cases (%)” value ([1]; Hepatitis) was 0% and the “Proportion of Positive Cases (%)” value ([1]; Liver Cancer Para-carcinoma Tissue) was 0%. For the same molecule, the “Proportion of Positive Cases (%)” value ([1]; Liver Cancer Tissue, 120 cases) was 79.17%, the “Proportion of Positive Cases (%)” value ([1]; Normal Liver Tissue) was 0% and the “number of invasive cells” value ([2]; Hetumomab 0.5 mg/ml) was 148±16.4 /field of vision. The “inhibition rate of invasion” value ([2]; Hetumomab 0.5 mg/ml vs PBS) was 50.8%, the “inhibition rate of invasion” value ([3]; SNU-5 CD44+ cells vs PBS) was 75.8% and the “Cells/Field of Vision (invasion)” value ([3]; antibody 10 μg/ml) was 146 ± 3.5. The “Cells/Field of Vision (invasion)” value ([3]; antibody 20 μg/ml) was 124 ± 3.0, the “Cells/Field of Vision (invasion)” value ([3]; antibody 40 μg/ml) was 108 ± 5.0 and the “Cells/Field of Vision (invasion)” value ([3]; antibody 80 μg/ml) was 93 ± 2.5. For the same molecule, the “Cells/Field of Vision (invasion)” value ([3]; antibody 144 μg/ml) was 56 ± 4.0, the “Cells/Field of Vision (invasion)” value ([4]; SPCA-1, antibody 200 μg/ml) was 205.7 ± 8.5 and the “Cells/Field of Vision (invasion)” value ([4]; SPCA-1, antibody 400 μg/ml) was 171.3 ± 4.9. For the same molecule, the “Cells/Field of Vision (invasion)” value ([4]; SPCA-1, antibody 800 μg/ml) was 153.0 ± 6.1, the “inhibition rate of invasion” value ([4]; SPCA-1 sphere cells vs PBS) was 34.1% and the “Tumor Volume Inhibition Rate (%)” value ([5]; High Dose 40 mg/kg i.p.) was 55.97%. The “Tumor Volume Inhibition Rate (%)” value ([5]; Low Dose 2.5 mg/kg i.p.) was 35.58%, the “Tumor Volume Inhibition Rate (%)” value ([5]; Medium Dose 10 mg/kg i.p.) was 43.56% and the “Co-staining ratio with CD90” value [6] was 2.01%. For the same molecule, the “share of CD90+ stem cells recognized” value [6] was 44.3%, the “Hetumomab+ cell ratio” value ([6]; 5 days serum-free) was 2.38% and the “Proportion of Positive Cases (%)” value ([7]; Gastric Cancer Para-carcinoma Tissue) was 0%. The “Proportion of Positive Cases (%)” value ([7]; Gastric Cancer Tissue, 110 cases) was 93.64%, the “Proportion of Positive Cases (%)” value ([7]; Normal Gastric Tissue) was 0% and the “Number of formed spheres” value ([8]; SPCA-1, antibody 200 μg/ml) was 128.3 ± 7.1. For the same molecule, the “Number of formed spheres” value ([8]; SPCA-1, antibody 400 μg/ml) was 113.7 ± 3.8, the “Number of formed spheres” value ([8]; SPCA-1, antibody 800 μg/ml) was 88.3 ± 7.2 and the “inhibition ratio of sphere-formation” value ([8]; SPCA-1, highest concentration of antibody) was 41.6%. The “Number of formed spheres” value ([9]; antibody 10 μg/ml) was 103 ± 3.5, the “Number of formed spheres” value ([9]; antibody 20 μg/ml) was 60 ± 4.2 and the “Number of formed spheres” value ([9]; antibody 40 μg/ml) was 32 ± 1.5. The “Number of formed spheres” value ([9]; antibody 80 μg/ml) was 27 ± 2.4, the “Number of formed spheres” value ([9]; antibody 144 μg/ml) was 18 ± 2.0 and the “inhibition ratio of sphere-formation” value ([9]; highest concentration of antibody) was 85.9%. For the same molecule, the “tumor volume inhibition rate” value ([10]; high dose 10 mg/kg, at drug withdrawal after 5 weeks) was 71.5%, the tumor growth rate ([10]; high dose 10 mg/kg) was 0.148 cm^3/day and the “tumor volume inhibition rate” value ([10]; high dose 10 mg/kg, one month after drug withdrawal) was 49.1%. The “tumor volume inhibition rate” value ([10]; low dose 2.5 mg/kg, at drug withdrawal after 5 weeks) was 54.4%, the tumor growth rate ([10]; low dose 2.5 mg/kg) was 0.185 cm^3/day and the “tumor volume inhibition rate” value ([10]; low dose 2.5 mg/kg, one month after drug withdrawal) was 34.4%.
